System: neonatal mice (10-day old) subjected to hypoxic-ischemic (HI) injury
Test: Infarct volumes in neonatal mice after HI injury treated with n-3 DG or TG emulsions or protectins (Example 2, FIG. 3 and 4)
Protocol: FIG. 3. Infarct volumes in neonatal mice (10-day old) subjected to hypoxic-ischemic (HI) injury and treated with saline as vehicle, n-3 triglyceride (TG), n-3 diglyceride (DG) emulsions. n=15-17. Values are means with SD. Dose=0.375 mg/g bw.
FIG. 4. […] Values are means with SD.
Acute treatment with triglyceride lipid emulsions containing both EPA and DHA or DHA alone (tri-DHA) provides neuroprotection after hypoxic-ischemic brain injury by acting within the initial minutes/hours of reperfusion. […] The neuroprotection afforded by tri-DHA acute administration was also associated with increased content of DHA in brain mitochondria and of DHA-derived bioactive mediators, such as neuroprotectin D1 (NPD1) and D-series resolvins, in cerebral tissue. Thus, the neuroprotective action afforded by direct administration of NPD1 after hypoxic-ischemic injury was further investigated.
Values are means with SD. Reductions in infarct volume were dose-dependent.

Compound | mitochondria-related cell death pathways (after hypoxic-ischemic injury) | mitochondrial Ca2+ buffering capacity (after hypoxic-ischemic injury) | cerebral infarct volumes (direct administration after hypoxic-ischemic injury, compared to the control group) | reductions in infarct volume (5, 10 or 20 ng per animal, FIG. 4) | neuroprotection (decreasing infarct size after hypoxic-ischemic brain injury), concentration needed relative to D1 derived from DHA (FIG. 4)
CC/C=C\C[C@H](O)\C=C/C=C/C=C/[C@H](O)C/C=C\C/C=C\CCC(=O)O [NPD1, neuroprotectin D1] | reduced mitochondria-related cell death pathways | preserved mitochondrial Ca2+ buffering capacity | significant reduction in cerebral infarct volumes |  | 
CC/C=C\C[C@H](O)\C=C/C=C/C=C/[C@H](O)C/C=C\CCCCCC(=O)O [PD1 n-3 DPA] |  |  |  | dose-dependent | at lower concentrations than neuroprotection D1 derived from DHA

Reference: patent US20240050391A1, “COMPOSITIONS AND METHODS FOR NEUROPROTECTION IN NEONATAL HYPOXIC-ISCHEMIC ENCEPHALOPATHY” (The Trustees of Columbia University in The City of New York, priority 2020, published 2024)
